From article PMC12820563 come the findings set out here.

This is one part of the list. The list includes weakly bound sequences.

The target in the experiment is T1, MBP-FoxP3dN (UniProt Q99JB6).
T1 sequence: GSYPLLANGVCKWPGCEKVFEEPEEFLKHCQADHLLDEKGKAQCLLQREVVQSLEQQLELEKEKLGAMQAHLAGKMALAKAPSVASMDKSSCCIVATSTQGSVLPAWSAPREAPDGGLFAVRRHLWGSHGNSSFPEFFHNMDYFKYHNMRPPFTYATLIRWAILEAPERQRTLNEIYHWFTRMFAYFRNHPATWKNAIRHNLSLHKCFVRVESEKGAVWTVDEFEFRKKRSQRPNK
Put plainly: PD-seq (MBP pull-down with sequencing). Conditions: 20 mM Tris-HCl pH 7.5, 100 mM NaCl, 1.5 mM MgCl2, 0.4 uM protein, 0.1 uM dsDNA library, 30 min, room temperature, amylose pull-down; high values mean tight binding; double strand, one strand shown.
Consider “GATGATTGTTCTCCCAGCTGATGAATTCTGCCTATCGAGTAAACAAATTTTCCTAATCTTTCTGTTCAAGCGCCATCTAC”, for which the binding signal (RPM ratio (pull-down/input)) came to 2.42. In the case of “GATGATTGTTCTCCCAGCTGATGAATTGTTAATATCGAGTAAACAAATTTTCCTAATCTTTCTGTTCAAGCGCCATCTAC”, the binding signal (RPM ratio (pull-down/input)) came out at 0.901. Next, “GATGATTGTTCTCCCAGCTGATGAATTCAACGGGTCGAGTAAACAAATTTTCCTAATCTTTCTGTTCAAGCGCCATCTAC”: 0.24; “GATGATTGTTCTCCCAGCTGATGAATTCCATACATCGAGTAAACAAATTTTCCTAATCTTTCTGTTCAAGCGCCATCTAC”: 0.474; “GATGATTGTTCTCCCAGCTGATGAATTTCGCACTTCGAGTAAACAAATTTTCCTAATCTTTCTGTTCAAGCGCCATCTAC”: 1.18. Next, “GATGATTGTTCTCCCAGCTGATGAATTCAGCTGTTCGAGTAAACAAATTTTCCTAATCTTTCTGTTCAAGCGCCATCTAC”: 1.19. Regarding “GATGATTGTTCTCCCAGCTGATGAATTCTCACGTTCGAGTAAACAAATTTTCCTAATCTTTCTGTTCAAGCGCCATCTAC”, the binding signal (RPM ratio (pull-down/input)) came out at 0.305. “GATGATTGTTCTCCCAGCTGATGAATTGCTGACATCGAGTAAACAAATTTTCCTAATCTTTCTGTTCAAGCGCCATCTAC”: the binding signal (RPM ratio (pull-down/input)) was 1.09.

“GATGATTGTTCTCCCAGCTGATGAATTATAGCACTCGAGTAAACAAATTTTCCTAATCTTTCTGTTCAAGCGCCATCTAC”: the binding signal (RPM ratio (pull-down/input)) is 0.694. Next, “GATGATTGTTCTCCCAGCTGATGAATTTGGTATTTCGAGTAAACAAATTTTCCTAATCTTTCTGTTCAAGCGCCATCTAC”: 3.3. Next, “GATGATTGTTCTCCCAGCTGATGAATTCCCCTAGTCGAGTAAACAAATTTTCCTAATCTTTCTGTTCAAGCGCCATCTAC”: 0.184; “GATGATTGTTCTCCCAGCTGATGAATTCAACACCTCGAGTAAACAAATTTTCCTAATCTTTCTGTTCAAGCGCCATCTAC”: 0.553. Next, “GATGATTGTTCTCCCAGCTGATGAATTGGTTGTGTCGAGTAAACAAATTTTCCTAATCTTTCTGTTCAAGCGCCATCTAC”: 5.42. As to “GATGATTGTTCTCCCAGCTGATGAATTTCGATCTTCGAGTAAACAAATTTTCCTAATCTTTCTGTTCAAGCGCCATCTAC”, the binding signal (RPM ratio (pull-down/input)) was 0.34. The result for “GATGATTGTTCTCCCAGCTGATGAATTACGCACTTCGAGTAAACAAATTTTCCTAATCTTTCTGTTCAAGCGCCATCTAC” reads 1.17; that for “GATGATTGTTCTCCCAGCTGATGAATTCCCCACATCGAGTAAACAAATTTTCCTAATCTTTCTGTTCAAGCGCCATCTAC”, 0.323; that for “GATGATTGTTCTCCCAGCTGATGAATTATACGAATCGAGTAAACAAATTTTCCTAATCTTTCTGTTCAAGCGCCATCTAC”, 0.333.

For the sequence “GATGATTGTTCTCCCAGCTGATGAATTTGCAGTGTCGAGTAAACAAATTTTCCTAATCTTTCTGTTCAAGCGCCATCTAC”, the binding signal (RPM ratio (pull-down/input)) came out at 1.78. Take “GATGATTGTTCTCCCAGCTGATGAATTAGTCTTCTCGAGTAAACAAATTTTCCTAATCTTTCTGTTCAAGCGCCATCTAC”: the binding signal (RPM ratio (pull-down/input)) is 0.802. Next, “GATGATTGTTCTCCCAGCTGATGAATTCGAACTGTCGAGTAAACAAATTTTCCTAATCTTTCTGTTCAAGCGCCATCTAC”: 0.317. The result for “GATGATTGTTCTCCCAGCTGATGAATTCAACGGTTCGAGTAAACAAATTTTCCTAATCTTTCTGTTCAAGCGCCATCTAC” reads 0.307; that for “GATGATTGTTCTCCCAGCTGATGAATTAAATGAGTCGAGTAAACAAATTTTCCTAATCTTTCTGTTCAAGCGCCATCTAC”, 0.419. The result for “GATGATTGTTCTCCCAGCTGATGAATTATCGGGTTCGAGTAAACAAATTTTCCTAATCTTTCTGTTCAAGCGCCATCTAC” reads 0.322; that for “GATGATTGTTCTCCCAGCTGATGAATTCCCGTAATCGAGTAAACAAATTTTCCTAATCTTTCTGTTCAAGCGCCATCTAC”, 0.495; that for “GATGATTGTTCTCCCAGCTGATGAATTGTCTACCTCGAGTAAACAAATTTTCCTAATCTTTCTGTTCAAGCGCCATCTAC”, 0.773. On to “GATGATTGTTCTCCCAGCTGATGAATTACGACACTCGAGTAAACAAATTTTCCTAATCTTTCTGTTCAAGCGCCATCTAC”, for which the binding signal (RPM ratio (pull-down/input)) stood at 1.76. Next, “GATGATTGTTCTCCCAGCTGATGAATTCACGATCTCGAGTAAACAAATTTTCCTAATCTTTCTGTTCAAGCGCCATCTAC”: 0.275. As for “GATGATTGTTCTCCCAGCTGATGAATTGCTTCGTTCGAGTAAACAAATTTTCCTAATCTTTCTGTTCAAGCGCCATCTAC”, the binding signal (RPM ratio (pull-down/input)) was determined as 0.539. Consider “GATGATTGTTCTCCCAGCTGATGAATTTGGCTGCTCGAGTAAACAAATTTTCCTAATCTTTCTGTTCAAGCGCCATCTAC”, for which the binding signal (RPM ratio (pull-down/input)) was 0.601. As for “GATGATTGTTCTCCCAGCTGATGAATTCTTGTTCTCGAGTAAACAAATTTTCCTAATCTTTCTGTTCAAGCGCCATCTAC”, the binding signal (RPM ratio (pull-down/input)) was 0.508. The result for “GATGATTGTTCTCCCAGCTGATGAATTGAAAGAATCGAGTAAACAAATTTTCCTAATCTTTCTGTTCAAGCGCCATCTAC” reads 0.183; that for “GATGATTGTTCTCCCAGCTGATGAATTTCACACATCGAGTAAACAAATTTTCCTAATCTTTCTGTTCAAGCGCCATCTAC”, 0.41.
